Measurements published in the GPR68 mutational scans of Howard et al. (2025).

B1: GPR68, Q15743 (parent)
chain: MGNITADNSSMSCTIDHTIHQTLAPVVYVTVLVVGFPANCLSLYFGYLQIKARNELGVYLCNLTVADLFYICSLPFWLQYVLQHDNWSHGDLSCQVCGILLYENIYISVGFLCCISVDRYLAVAHPFRFHQFRTLKAAVGVSVVIWAKELLTSIYFLMHEEVIEDENQHRVCFEHYPIQAWQRAINYYRFLVGFLFPICLLLASYQGILRAVRRSHGTQKSRKDQIQRLVLSTVVIFLACFLPYHVLLLVRSVWEASCDFAKGVFNAYHFSLLLTSFNCVADPVLYCFVSETTHRDLARLRGACLAFLTCSRTGRAREAYPLGAPEASGKSGAQGEEPELLTKLHPAFQTPNSPGSGGFPTGRLA

Columns and labels:
[1] = variants of: B1; test: cAMP reporter score (Enrich2 score, wild type = 0); higher = more signal; HEK293T, FACS bins
[2] = variants of: B1; test: surface expression score (Enrich2 score, wild type = 0); higher = more signal; HEK293T, FACS bins

Variant | cAMP reporter score ([1]; pH 5.5) | cAMP reporter score ([1]; pH 6) | cAMP reporter score ([1]; pH 6, modulator: ogerin) | cAMP reporter score ([1]; pH 6.5, modulator: ogerin) | surface expression score [2]
F265Y | -0.158 | -1.2 | 0.131 | -0.945 | 1.45
F265T | -0.745 | – | -0.459 | – | 0.472
F265M | -0.557 | -0.589 | -0.729 | -0.013 | 0.696
F265W | -0.926 | – | -0.646 | -1.09 | 0.816
F265D | 0.358 | 1.62 | -0.413 | -0.1 | 1.55
F265K | -1.39 | -0.427 | -0.874 | -0.224 | -1.35
F265V | 0.428 | – | 0.063 | 2.04 | 1.41
F265S | 0.392 | -0.456 | -0.101 | -0.467 | 0.467
F265N | -0.937 | 0.286 | -0.729 | -0.703 | 2.91
F265I | -0.454 | -0.39 | -0.271 | -0.451 | 0.055
F265E | -0.92 | -0.974 | -1.34 | -1.01 | 0.567
F265H | -0.771 | – | -1.24 | -0.427 | –
F265P | -0.967 | -0.196 | – | -0.788 | -1.26
A267_Y268insG | -1.37 | -1.07 | -0.423 | -0.85 | -0.404
G263_V264del | -1.25 | -1.86 | -1.71 | -1.34 | -1.56
V264_F265insGSG | -1.84 | -1.5 | -1.03 | -0.626 | -2.04
A267_Y268insGS | -1.18 | -1.6 | – | -0.617 | –
S271_L272insG | -0.285 | -1.06 | -1.3 | -1.11 | -2.26
L274N | -1.19 | -1.28 | – | -1.8 | -2.53
L274M | -0.073 | -0.78 | -0.276 | -0.384 | -0.217
L274C | -0.421 | -1 | -0.153 | -0.859 | -0.969
L274F | -1.18 | – | -0.718 | -1.07 | -0.246

Variant | cAMP reporter score ([1]; pH 5.5) | cAMP reporter score ([1]; pH 6) | cAMP reporter score ([1]; pH 6, modulator: ogerin) | cAMP reporter score ([1]; pH 6.5, modulator: ogerin) | surface expression score [2]
L274R | -0.481 | – | -0.643 | – | –
L274I | -0.574 | -1.56 | -1.22 | -1.32 | -1.44
L274Y | -2.48 | -1.05 | -2.9 | -1.68 | -2.13
L274W | -1.49 | – | – | -0.014 | –
L274K | 0.016 | -0.706 | – | -2.47 | –
L274A | -0.534 | -0.94 | 0.015 | -0.451 | 0.313
L274V | -0.383 | -0.948 | -1.07 | -1.33 | -0.776
L274Q | -1.37 | -1 | -1.75 | -0.948 | -2.3
L274P | -2.25 | -0.771 | -1.62 | -0.877 | -2.17
L274S | -2.32 | -2.12 | -0.965 | -1.95 | -2.37
L274H | -1.56 | -0.697 | -1.21 | -1.42 | -2.22
L274D | -1.65 | -1.21 | -1.38 | -1.53 | -1.8
L274E | -2.16 | 0.342 | -1.33 | -1.78 | -2.07
S271_L272insGS | -0.416 | – | -0.648 | -0.441 | –
L272_L273del | -1.45 | -0.58 | -1.57 | -1.06 | -1.33
F270del | -1.3 | 0.498 | – | 0.006 | -2.85
L272_L273insG | -1.25 | -1.75 | -1.91 | -2.18 | -2.13
H269_F270insGSG | -1.53 | -0.397 | -1.49 | -0.76 | -2.61
V264del | -1.01 | -0.227 | -0.955 | -0.128 | -1.85
G263_V264insGSG | -1.59 | -1.28 | -1.95 | -1.62 | -1.81
F270_S271insG | -1.6 | – | – | -1.01 | -2.94
F270D | -1.1 | -0.894 | -1.94 | -1.01 | -2.29

Variant | cAMP reporter score ([1]; pH 5.5) | cAMP reporter score ([1]; pH 6) | cAMP reporter score ([1]; pH 6, modulator: ogerin) | cAMP reporter score ([1]; pH 6.5, modulator: ogerin) | surface expression score [2]
F270G | -0.45 | -0.815 | -0.158 | 0.104 | -0.32
F270Q | -1.24 | -0.968 | -0.868 | -0.698 | -2.32
F270Y | -0.15 | -0.558 | -0.792 | -0.876 | -1.07
F270V | 0.416 | -0.568 | 0.375 | -0.01 | 0.797
F270K | -1.89 | -1.14 | -1.69 | -1.11 | -1.3
F270A | 0.287 | 0.32 | 0.377 | -0.19 | 1.13
F270T | 0.519 | -1.08 | 0.304 | -0.653 | -0.328
F270L | -0.108 | -1.15 | -0.804 | -1.66 | 0.119
F270I | -0.279 | -1.77 | -0.737 | -1.8 | 0.411
F270S | -0.537 | -0.83 | -1.05 | -0.696 | 0.148
F270R | -1.29 | -0.692 | -0.979 | -1.59 | -2.64
F270C | -0.607 | -0.251 | -0.412 | -1.7 | -1.17
F270H | -1.26 | -1.65 | -1.77 | -0.479 | -2.43
F270E | -2.07 | – | -0.998 | -1.49 | –
F270N | -0.412 | -0.06 | -0.65 | – | -0.409
F270P | -2 | -0.54 | -1.72 | – | -1.36
F270M | -0.29 | -1.58 | -0.294 | -0.622 | -0.359
F270W | -0.779 | -0.954 | -1.53 | -0.581 | -1.1
H269_F270insG | -1.89 | -1.36 | -1.82 | -1.45 | -1.74
N266del | 0.042 | -0.155 | – | 0.02 | -2.62
G263_F265del | 0.011 | -0.279 | -0.28 | 0.541 | -1.02

Scores whose standard error is large were omitted. Not listed are two conditions whose scores span a narrow range. Read del as a deletion of the residues named and ins as an insertion between two positions. For some assays here: The data file names ogerin without a concentration.
